Experimental data taken from PubChem BioAssay AID686978 (National Center for Advancing Translational Sciences (NCATS), 2013).
Screen size: about 420,000 compounds; about 64,000 (15%) were called active. Inconclusive means that the source gave no clear call. Such entries were picked first, then a sample of the others. Calls follow the shape of the dose curve; as a rule, active = well fitted inhibition curve with a large enough effect; inconclusive = small, poorly fitted or top-dose-only effect; inactive = flat fitted curve, though single readings scatter. No potency is given beside an inconclusive call; the fits are too rough.

Assay: qHTS for Inhibitors of human tyrosyl-DNA phosphodiesterase 1 (TDP1): qHTS in cells in absence of CPT; also: nearly all actives have a fitted effect of over 55% in size
Settings: DT40 Tdp1-/- hTDP1 cells, no CPT, ATP luminescence, 48 h; activity change, negative = growth inhibition: at 46.2 µM (top of the series) unless noted
Outline: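 Readout: luminescence from CellTiter-Glo after 30 min in the dark at RT. Cells: DT40 Tdp1-/- with stable hTDP1, 400/well. Exposure: compounds alone, ≥48 hr, 37 °C.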
% is scaled to controls: 0 for no effect and ±100 for the full control effect; potency is read from the fitted curve at half-maximal effect; tags tell the direction and shape of the fitted curve.

SMILES	Potency	activity change, negative = growth inhibition
O=C(Nc1ccccc1N1CCCCC1)c1ccc(-c2ccc(Cl)cc2)o1	active: 4.11 µM	
Cc1ncnc2nc[nH]c12	active: 1.78 µM	
Cc1ccn2c(NC3CCCC3)c(-c3ccsc3)nc2c1	inactive	
O=C(NC1=NCCS1)c1ccc(Cl)c(S(=O)(=O)N2CCc3ccccc32)c1	inconclusive [inhibitor, single point]	
NCCCNC(=O)Cn1c(=O)c2c3c(sc2n(Cc2ccccc2)c1=O)CCCC3	inconclusive [inhibitor, partial curve]	
CCCNC(=S)Nc1ccccc1	inactive	
COC(=O)c1ccc(COc2ccc(C(=O)c3ccccc3)cc2)o1	inconclusive [inhibitor, single point]	
CCc1nnc(N/N=C/c2c(F)cccc2Cl)n1N	inactive	
CCCCC1CCC(c2nc(-c3ccccn3)no2)CC1 (stereo not drawn)	inconclusive [inhibitor, partial curve]	
COc1cccc(C#Cc2ccc3c(c2)O[C@H](CN(C)S(=O)(=O)c2ccccc2F)[C@H](C)CN([C@H](C)CO)S3(=O)=O)c1	inconclusive [inhibitor, partial curve, poor fit]	
CCOCCCNC(=O)c1cn(CC)c2ccc(S(=O)(=O)N3CCc4ccccc4C3)cc2c1=O	active: 16.4 µM	
CCOC(=O)c1[nH]c(C)c(CCC(=O)N2CCN(c3cccc(C)c3C)CC2)c1C	active: 18.4 µM	
CN1CCN(C(=O)CCN2C(=O)/C(=C\c3ccc(Cl)cc3)SC2=S)CC1	inconclusive [inhibitor, partial curve]	
CN1CCN(c2ccc(S(=O)(=O)N3CCCCC3)cc2NC(=O)c2ccc3ccccc3c2)CC1	inconclusive [inhibitor, single point]	
CCCCCCCCOC(=O)C1=C(C)Nc2nnnn2C1c1cccs1 (stereo not drawn)	active: 16.4 µM	
CC(=O)c1ccc(NC(c2ccc(F)cc2)c2nnc(-c3ccccc3)o2)cc1 (stereo not drawn)	active: 8.2 µM	
O=C(/C=C/c1cccs1)N1CCC2(CC1)Oc1ccc(Cl)cc1C(=O)C21CC(c2ccc(Cl)cc2)=NO1 (stereo not drawn)	inactive	
Cc1nc2ccccc2n1CCOc1ccccc1	inconclusive [inhibitor, single point]	
COCCOC(=O)c1c(C)nc(SCC(=O)Nc2ccc(OC)cc2)c(C#N)c1-c1ccco1	inconclusive [inhibitor, single point]	
COc1ccc(C(=O)C2CCN(CC(=O)Nc3cc(C)cc(C)c3)CC2)cc1	inconclusive [inhibitor, single point]	
CC(C)c1cc(NC(=O)c2ccccc2)cc(C(C)C)c1O	inconclusive [inhibitor, single point]	
N#CC1=C(N)N2C(=C(C#N)C13CCCCC3)SC1CCCCC12O (stereo not drawn)	active: 13 µM	
CCOCCc1nn2c(=O)cc(COC(=O)CNC(=O)c3ccc(F)cc3)nc2s1	inactive	

SMILES	Potency	activity change, negative = growth inhibition
CSc1ccc(CN2CCN(C(=O)c3ccncc3)CC2)cc1	inconclusive [inhibitor, full curve, poor fit]	
Cc1ccc([C@H]2C[C@@H](O)[C@H](n3cc(-c4ccc(F)cc4)nn3)CN2C(=O)c2cccs2)cc1	active: 14.6 µM	
CC(=O)c1ccc(S(=O)(=O)N2CCN(CC(=O)Nc3ccc(Cl)c([N+](=O)[O-])c3)CC2)cc1	inconclusive [inhibitor, partial curve]	
Brc1ccc(-c2nnc3n2C2(CCCC2)Cc2ccccc2-3)o1	inconclusive [inhibitor, single point]	
CCc1ccc(Nc2sc(C(=O)c3ccccc3)c(N)c2S(C)(=O)=O)cc1	inconclusive [inhibitor, single point]	
Cc1ccc(CSc2nc(-c3ccc(C(C)(C)C)cc3)nc3cc(=O)[nH]n23)cc1	inconclusive [inhibitor, single point]	
CCn1c(Cn2nnc(-c3ccccc3)n2)nnc1SCC(=O)Nc1cccc(C(C)=O)c1	inconclusive [inhibitor, single point]	
CC(=O)c1cccc(S(=O)(=O)N2CCCC(c3nc4c(nnn4Cc4ccccc4Cl)c(=O)[nH]3)C2)c1 (stereo not drawn)	inactive	
Cc1ccccc1OCC(=O)Nc1ccc2c(c1)OCCO2		inconclusive: -33.9% [inhibitor]
Cc1cc(N2CCCCC2)n2nc(C)c(-c3ccccc3)c2n1	inconclusive [inhibitor, partial curve, poor fit]	
OC(c1ccc(F)cc1)c1nc(-c2cc3ccccc3o2)cs1 (stereo not drawn)	inconclusive [inhibitor, single point]	
O=S(=O)(Cc1ccccc1)N1CCN(Cc2c(F)cccc2Cl)CC1	inconclusive [inhibitor, partial curve, poor fit]	
Cc1ccc(CN2CCCC2(C)C(=O)NC(C)C)cc1 (stereo not drawn)	inconclusive [inhibitor, single point]	
CC(Oc1ccc(S(=O)(=O)N2CCCC2)cc1[N+](=O)[O-])C(=O)NC(C)c1ccccc1 (stereo not drawn)	inconclusive [inhibitor, single point]	
Cc1cc(C)c(S(=O)(=O)NCC23C=CC(O2)C2C(=O)N(c4ccccc4)C(=O)C23)c(C)c1 (stereo not drawn)	inconclusive [inhibitor, single point]	
CCCCCCCCN1C(=O)[C@H](CC(=O)NCc2ccc(OC)c(OC)c2)C[C@@]2(C(=O)OCC)CCCC=C12	inconclusive [inhibitor, single point]	
O=C(Nc1ccc2nc3ccccc3nc2c1)c1ccccc1	inconclusive [inhibitor, single point]	
COc1ccc(/C(C)=N\Nc2nc(-c3ccc(Cl)cc3)cc(C(F)(F)F)n2)cc1OC	inconclusive [inhibitor, full curve, poor fit]	
CCOc1ccc(CC(=O)NCCc2csc(-c3ccc(Cl)cc3)n2)cc1	active: 16.4 µM	
COc1ccc(OCc2nc3ccc(S(=O)(=O)Nc4ccccc4Cl)cc3[nH]2)cc1	inconclusive [inhibitor, partial curve]	
Cc1ccc(S(=O)(=O)NNC(=O)Nc2ccc([N+](=O)[O-])cc2)c(C)c1	inconclusive [inhibitor, single point]	
COc1ccc(C(=O)Nc2ccccc2N2CCN(C(=O)c3ccccc3)CC2)cc1Br	inconclusive [inhibitor, single point]	
O=C(Nc1ccc2oc(-c3ccc(Cl)cc3)nc2c1)c1ccc2ccccc2c1	inactive	

SMILES	Potency	activity change, negative = growth inhibition
CC(=O)Nc1cccc(NC(=O)c2ccccc2OCc2c(C)noc2C)c1	inconclusive [inhibitor, single point]	
COc1ccc(-c2n[nH]c(C)c2-c2ccc(Cl)cc2)c(O)c1	inconclusive [inhibitor, single point]	
CCN(CC)CCCNC(=O)c1cc(Nc2ccc(OC)cc2)nc2ccccc12	active: 23.1 µM	
CCOC(=O)c1c(NC(=O)c2ccc(OC)c(OC)c2)sc2c1CCCCC2	inconclusive [inhibitor, single point]	
Cn1nc(-c2ccccc2)c(CN2CCN(c3ncccn3)CC2)c1Cl	inconclusive [inhibitor, single point]	
CN(C)Cc1ccccc1-c1nc(N2CCOCC2)c2ccccc2n1	inconclusive [inhibitor, single point]	
CC1(C(=O)NS(=O)(=O)c2cccc(C#N)c2)CCN1C(=O)c1ccc(C2CCCCC2)cc1 (stereo not drawn)	inactive	
O=C(CCOc1ccccc1)N(Cc1cccnc1)c1nc2ccc(F)cc2s1	inconclusive [inhibitor, single point]	
CCOC(=O)c1cn2nc(Oc3cccc(F)c3)ccc2n1	inconclusive [inhibitor, single point]	
CCOC(=O)COc1c(C(=O)OC)sc2ncccc12	inactive	
Cc1ccc2nc(-c3ccc(NC(=O)CN4CCN(C(=O)c5ccco5)CC4)cc3)sc2c1	inactive	
CC(=O)c1cccc(N(C(=O)Cn2nnc3ccccc32)C(C(=O)NCC2CCCO2)c2ccc(N3CCOCC3)cc2)c1 (stereo not drawn)	inactive	
Cn1c(=O)c2cn(-c3cccc4ccccc34)cc2n(C)c1=O	active: 25.9 µM	
Oc1cccc(Nc2nc(N3CCOCC3)nc(N3CCOCC3)n2)c1	active: 8.2 µM	
Cc1cc(C)c2sc(NC(=O)c3ccc([N+](=O)[O-])o3)nc2c1	inconclusive [inhibitor, partial curve, poor fit]	
Cc1ccc(C(=O)NCCCNCCCN(C)C)cn1	inactive	
CCOc1ccccc1NC(c1nnc(-c2ccccc2)o1)c1ccc(F)cc1Cl (stereo not drawn)	active: 20.6 µM	
CC1(c2ccccc2)CC(C)(C)N2C(=O)C(=O)c3cccc1c32 (stereo not drawn)	inconclusive [inhibitor, single point]	
CCOC(=O)C1CCC(C(=O)OCC)N1c1ccc(C=O)cc1 (stereo not drawn)	inconclusive [inhibitor, single point]	
O=C(NCCc1ccccc1)c1ccc(Cl)c(S(=O)(=O)N2CCCC2)c1	inconclusive [inhibitor, single point]	
Cn1c(=O)oc2cc(S(=O)(=O)N3CCC(C(=O)N4CCN(c5ccc(Cl)cc5)CC4)CC3)ccc21	active: 2.31 µM	
COc1cc(C(=O)O/N=C(\N)c2ccccn2)cc(OC)c1OC	inconclusive [inhibitor, single point]	
